Reference: PubChem BioAssay AID1508624 (National Center for Advancing Translational Sciences (NCATS), 2021)
The campaign covered roughly 48,000 compounds. About 120 (0.25%) were called active. About 4% were inconclusive and are not listed. Calls come from the whole dose curve; as a rule, active = well fitted activation curve with a large enough effect; inconclusive = small, poorly fitted or top-dose-only effect, or another doubt; inactive = no such curve, though single readings can be large or run the other way. This is one part of the list.

test: Primary qHTS for Identification of Small Molecule Activators of Huntingtin-Antisense Promoter Activity; conditions: HEK293 HTT-AS promoter firefly luciferase reporter, 24 h; series mostly up to 57.5 µM; activity change, positive = activation: at the top concentration; note: nearly all actives have a fitted effect of over 55% in size
Summary of the method: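 Firefly luciferase signal from promoter-reporter HEK293 cells was scaled between vehicle (0%) and zero RLU (-100%). Compounds were tested at final concentrations of up to 57.5 uM over 24 h at 37 degrees C. PTC124 at 50 uM final served as control inhibitor.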

Row | Compound | activity change, positive = activation
1 | Cc1ccccc1Cn1nnc2c(=O)[nH]c(C3CCN(C(=O)c4ccccc4)CC3)nc21 | inactive: -15%
2 | CCOC(=O)c1cnc2ccc(C(=O)OC)cc2c1Nc1ccccc1CC | inactive: -47.9%
3 | Cc1cn([C@H]2C[C@H](F)[C@@H](CO)O2)c(=O)[nH]c1=O | inactive: -11.7%
4 | Cc1cc(C)cc(-n2ccnc2SCC(=O)Nc2nc3ccccc3s2)c1 | inactive: -38%
5 | CCCCNc1nc(Oc2ccc(OCC(N)=O)nn2)nc(N2CCOCC2)n1 | inactive: 1.21%
6 | COc1ccc(C2C(=O)c3ccccc3C2=O)cc1 | inactive: 3.53%
7 | CC(C)n1c(C=C[C@H](O)C[C@H](O)CC(=O)O)c(-c2ccc(F)cc2)c2ccccc21 | inactive: 22.9%
8 | CCOc1cc(C2c3c(oc4ccc(F)cc4c3=O)C(=O)N2Cc2ccco2)ccc1O (configuration not stated) | inactive: -16.5%
9 | Cc1ccc(-c2cc(C(=O)NCc3cnn(C)c3)c3cc(Br)ccc3n2)cc1 | inactive: 17.1%
10 | Cc1ccc(-n2c(SCC(=O)Nc3ccc4c(c3)OCO4)nc3c([nH]c4ccccc43)c2=O)cc1 | inactive: 5.36%
11 | CCc1ccccc1N(C)C(=O)c1cnc(N2CCOCC2)c2ccccc12 | inactive: -16.6%
12 | Cc1cc(Br)ccc1NC(=O)c1cn(C2CCCC2)c(=O)c2c1c1ccccc1n2C | inactive: 6.33%
13 | Cc1ccc(Cc2nc3ccccc3nc2SCC(=O)NCc2ccc(F)cc2)cc1 | inactive: -15.7%
14 | Cc1cccc(C(=O)N2CCc3cc(CNC(=O)Cc4ccc(F)cc4)ccc32)c1 | inactive: -43.4%
15 | COc1ccc(CCNc2ncnc3c2c(-c2ccccc2)cn3-c2ccc(F)cc2)cc1OC | inactive: -42.1%
16 | CCC(=O)C1=C(c2cccc([N+](=O)[O-])c2)N(C(=O)CC)n2c(nnc2-c2ccccc2)S1 | inactive: -18.4%
17 | CN(C)c1ccc(CNC(=O)C2CCN(S(=O)(=O)c3ccc4c(ccn4C)c3)CC2)cc1 | inactive: -16%
18 | Cc1ccc(C)c(Nc2nn3c(=O)c4ccc(C(=O)NCCc5ccccc5)cc4nc3s2)c1 | inactive: -2.95%
19 | Cc1n[nH]c(C)c1S(=O)(=O)N1CCCC(C(=O)Nc2ccc(Cl)cc2)C1 (configuration not stated) | inactive: -46.7%
20 | CCN(C(=O)Cn1cc(S(=O)(=O)Cc2ccccc2Cl)c2ccccc21)c1ccccc1 | inactive: -35.9%
21 | CN(C)c1ccc2nc3ccc(=[N+](C)C)cc-3sc2c1 | inactive
22 | Cc1ccc(N2CCN(C(=O)c3c4c(nc5ccccc35)C(=O)N(C3CCCCC3)C4)CC2)c(C)c1 | inactive: 4.24%
23 | COc1ccc(C(=O)Nc2nc3c(s2)CCc2cc(OC)ccc2-3)cc1 | inactive: 0.846%
24 | COCCCn1c(SCC(=O)NCc2ccccc2)nc2c(sc3ccccc32)c1=O | inactive: -5.2%

Row | Compound | activity change, positive = activation
25 | CCn1cc(C(=O)NCCCN(CC(C)C)CC(C)C)c(=O)c2cc(S(=O)(=O)N(C)C3CCCCC3)ccc21 | inactive: 1.83%
26 | COc1ccc(NC(=O)CCc2nnc3n(C)c(=O)c4sccc4n23)cc1Cl | inactive: -8.67%
27 | COc1cccc(N2C(=O)N(Cc3ccc(C#N)cc3)c3ccccc3S2(=O)=O)c1 | inactive: -27.7%
28 | CCc1ccccc1NC(=O)Cn1c(=O)n(CC2CCC(C(=O)NCCc3ccccc3)CC2)c(=O)c2ccccc21 (configuration not stated) | inactive: -13.7%
29 | O=S(=O)(c1ccccc1F)N1CCC(Oc2ccc(-n3cnnn3)cc2)CC1 | inactive: -37.6%
30 | CCC(=O)N1CCc2cc(Br)cc(S(=O)(=O)CCC(=O)Nc3ccc(C)c(C)c3)c21 | inactive: 2.67%
31 | COc1ccc(-c2noc(-c3ccc(NCc4cccnc4)c([N+](=O)[O-])c3)n2)cc1 | inactive: -6.62%
32 | COc1ccc(CCNC(=O)Cn2c(=O)n(-c3cc(OC)c(OC)c(OC)c3)c(=O)c3ccccc32)cc1OC | inactive: 0%
33 | COc1cccc(CNc2nc3c(-c4ccccc4)nnn3c3ccccc23)c1 | inactive: 5.76%
34 | Cc1ccc2oc(=O)c3cnn(CC(=O)N4CCN(c5cc(Cl)ccc5C)CC4)c3c2c1 | inactive: -5.4%
35 | CN1C(C(=O)Nc2ccccn2)=C(O)c2sccc2S1(=O)=O | inactive
36 | CCOc1ccc(NC(=O)c2cc(S(=O)(=O)N3CCCCC3)c[nH]2)cc1 | inactive: -23.9%
37 | CC(CSC(=O)c1ccccc1)C(=O)N1C[C@@H](Sc2ccccc2)C[C@H]1C(=O)O (some centres not stated) | inactive: -7.05% [at 25.1 µM, percent change from vehicle, -100% = no light]
38 | CCOc1ccc(CCNCc2c(C(=O)O)n(Cc3ccc(C)cc3)c3cc(OC)ccc23)cc1 | inactive: -20.1%
39 | CN(Cc1ccccc1)C(=O)CSc1nc2ccsc2c(=O)n1-c1ccc(F)cc1 | inactive: -18.2%
40 | CC(C)C(C)C=CC(C)C1CCC2C3=CC=C4CC(O)CCC4(C)C3CCC21C (configuration not stated) | inactive: -21.1%
41 | COc1ccc(C(=O)/C=C/c2cn(CC(O)CN(CC(C)C)CC(C)C)c3ccccc23)cc1 (configuration not stated) | inactive: -32.2%
42 | CCOC(=O)c1nc(N2CCN(c3ccc(F)cc3)CC2)c2c(C)noc2n1 | inactive: -13.8%
43 | CCn1c(=O)n(-c2ccc(F)c(Cl)c2)c(=O)c2c3c(sc21)CN(C(C)=O)CC3 | inactive: 0.082%
44 | COc1cccc(C(=O)Nc2ccc(-c3nc4ccccc4s3)cc2Cl)c1 | inactive: 9.94%
45 | COc1cccc(N2C(=O)CSC23C(=O)N(Cc2ccccc2)c2ccccc23)c1 (configuration not stated) | inactive: -18%
46 | Cc1ccc(C)c(CSc2cn(CC(=O)N3CCCCCC3)c3ccccc23)c1 | inactive: -6.43%
47 | COc1ccc(-c2csc3nc(-c4ccc(F)cc4)oc(=O)c23)cc1 | inactive: 1.15%
